PubChem BioAssay AID1159614 (National Center for Advancing Translational Sciences (NCATS), 2016)
The campaign covered roughly 45,000 compounds. About 65 (0.1%) were called active. Calls come from the whole dose curve; as a rule, active = well fitted activation curve with a large enough effect; inconclusive = small, poorly fitted or top-dose-only effect; inactive = no such curve, though single readings can be large or run the other way. This is one part of the list.

What follows are compounds tested against Galactocerebrosidase (Homo sapiens) (UniProt P54803) (assay: A Novel Cell-Based Assay to Identify Small Molecules for B -Galactocerebrosidase). Details: 145M-Twi-hGALC-G270D cells (Twitcher mouse brain line with human GALC G270D), HMU-beta-Gal fluorescence, 48 h; series mostly up to 57.5 µM; activation: at the top concentration.
Sequence of UniProt P54803 (P54803 whole entry, looked up): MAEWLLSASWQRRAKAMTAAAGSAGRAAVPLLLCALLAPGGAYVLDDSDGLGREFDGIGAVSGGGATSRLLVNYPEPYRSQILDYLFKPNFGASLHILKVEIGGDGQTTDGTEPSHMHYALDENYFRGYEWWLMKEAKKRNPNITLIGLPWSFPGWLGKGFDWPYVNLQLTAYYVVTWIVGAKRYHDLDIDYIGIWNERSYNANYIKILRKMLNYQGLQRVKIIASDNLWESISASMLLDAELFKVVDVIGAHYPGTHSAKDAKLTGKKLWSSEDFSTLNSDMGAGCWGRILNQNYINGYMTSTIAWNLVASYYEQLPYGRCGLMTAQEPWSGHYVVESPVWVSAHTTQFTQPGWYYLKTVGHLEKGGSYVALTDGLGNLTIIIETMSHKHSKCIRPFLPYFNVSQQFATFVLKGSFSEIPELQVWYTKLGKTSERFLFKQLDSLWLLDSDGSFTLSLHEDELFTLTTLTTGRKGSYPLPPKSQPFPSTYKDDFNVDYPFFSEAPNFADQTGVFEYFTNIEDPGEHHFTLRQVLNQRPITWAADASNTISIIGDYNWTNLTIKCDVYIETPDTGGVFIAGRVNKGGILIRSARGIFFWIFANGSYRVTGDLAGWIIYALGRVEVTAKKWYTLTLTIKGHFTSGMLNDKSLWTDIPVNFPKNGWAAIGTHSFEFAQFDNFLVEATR
Description: Lysosomal storage diseases (LSDs) are caused by genetic mutations in genes encoding proteins important for normal lysosomal function. Globoid cell leukodystrophy (GLD), mostly known as Krabbe disease, is a prototype of the neurological LSDs caused by deficiency of beta-galactocerebrosidase (GALC). In brain specimens of GLD patients, psychosine levels are substantially elevated. At elevated concentrations, psychosine becomes cytotoxic to neuronal cells, particularly to oligodendrocytes (OLG), neural cells responsible for myelin formation. Therefore, the biochemical disturbances in GLD are manifested by different degrees of brain demyelination resulting in a broad spectrum of neurological manifestations. Most of the FDA-approved therapies are based on enzyme replacement therapeutic (ERT) agents, which treat non-neurological symptoms of Gaucher disease, Fabry disease, few mucopolysaccharidoses and Pompe disease. Unfortunately, in GLD, a primarily neurological LSD, ERT agents, as large molecular weight molecules unable to cross the blood-brain barrier, which makes this an inefficacious therapeutic approach. In GLD, increasing the residual GALC activity just above the critical threshold (~10% of wild type enzymatic activity), the cytotoxic levels of psychosine will be reduced, avoiding the OLGs apoptosis and the subsequent demyelination process. This will translate in disease stabilization and amelioration of GLD patient symptoms.
A cell-based assay in 1,536-well plate format was developed to implement a quantitative high-throughput screening (qHTS) assay using GLD-disease relevant cells to identify small molecules that produce enhancements of the residual enzymatic activity levels of mutants GALC found and prevalent in GLD patients. Compounds that are active may therefore have some therapeutic application for GLD. After the treatment of live cells for a determined period, using a fluorescent GALC specific substrate, the mutant residual GALC activity is measured. This cell-based qTHS assay was used to screen part of the MLPCN library for small molecule able to increase the mutant GALC enzymatic activity. In this assay, increased fluorescent signal corresponds to enhanced levels of mutant GALC residual enzymatic activity. Activation is the desired outcome for this assay.
NIH Chemical Genomics Center [NCGC]
NIH Molecular Libraries Probe Centers Network [MLPCN]
Assay Submitter (PI): Gustavo Maegawa MD,PhD, University of Florida, Gainesville, FL
2)#Two cell lines were established for the assay: 145M-Twi-hGALC-G270D (brain-derived Twitcher cell line stably expressing human GALC-G270D) and 145M-Twi-hGALC-WT (same 145M-Twi stably expressing human GALC wild type). The Twitcher is the murine C57B/6 model for GLD with naturally occurring homozygous nonsense GALC mutation. The 145M-Twi cell line was established at Maegawa lab (Ribbens J et al 2014).
a.#Media: DMEM/F12 (1:1) with 10% fetal bovine-serum (FBS) with penicillin/streptomycin (PS-1X - 100 I.U./mL of penicillin+100 ug/mL of streptomycin).
b.#The 6-Hexadecanoylamino-4-methylumbelliferyl-b-D-galactoside (HMU-B-gal) substrate was prepared as per Wiederschain et al 1992. Using 20-mL borosilicate tubes, 2.20 mg of HMU-b-Gal was added in each tube to prepare substrate-film with a final air-nitrogen stream evaporation to remove all diluent solvents.
c.#The HMUb-Gal substrate buffer consists of 0.2 M Na2HPO4 (sodium phosphate dibasic)/ 0.1 M Citric Acid with the pH adjusted to 5.2 using HCl. Sodium Azide at 0.02% and Sodium Taurocholate (NaTC) at 1 mg/mL were added to this substrate buffer.
d.#The HMU-b-Gal stopping buffer consist of 0.5 M NaHCO3 (sodium bicarbonate) /0.5 M Na2CO3 (sodium carbonate). […] Triton X-100 at 0.25% was added.
4)#Preparation of HMU-b-Gal substrate tubes
Adding 18.6 mL of the HMUb-Gal substrate buffer to each 20-mL tube (2.20 mg of HMU-b-Gal) will reach a concentration of 0.2 mM. Vortex well the tube until the solution is fully homogenized (clear cloudy solution). […]
Note: 0% is about no effect; nearly all actives have a fitted effect of over 65% in size.

activation, inactive:
COc1ccc(OC)c(NC(=O)Cn2c(CCC(=O)O)ccc2-c2ccccc2)c1 -13.7%
CCC(=O)Nc1ccccc1C(=O)OCc1cc(=O)n2cc(C)sc2n1 -9.77%
CC(C)CCN1C(=O)c2ccccc2CC1(C)C(=O)NC1CCCCC1 (stereo unspecified) -9.61%
O=C(Nc1c(C(=O)N2CCN(c3ccccc3)CC2)oc2ccccc12)c1ccccc1F -13.2%
Cc1cccc(N(C)C(=O)c2cc3c(=O)oc4ccc(C)cc4c3s2)c1 -0.131%
CCOc1ccc(-n2nc3ccc(NC(=O)c4ccc(C)cc4C)cc3n2)cc1 -14.6%
Cc1ccc(CCNC(=O)c2cc3cc(S(=O)(=O)N4CCCCC4)ccc3n2C)cc1 -9.74%
CC1CC(=O)N(CC(=O)Nc2ccc(OC(F)(F)F)cc2)c2ccccc2S1 (stereo unspecified) 1.54%
CCCN1CCN(C(=O)Cn2ncc3c4ccccc4n(Cc4cccc(Cl)c4)c3c2=O)CC1 -8.83%
CCOC(=O)c1ccc(Nc2nc3ccccc3n3c(C)nnc23)cc1 -12.5%
CC1=Nc2cc(C(=O)NC3CCCC3)ccc2Sc2ccc(Cl)cc21 -15%
CCN1CCN(CCCNC(=O)c2cnn(-c3ccc(OC)cc3)c2C2CCN(C(=O)OC(C)(C)C)CC2)CC1 -7.48%
CCN1CCOC(=O)C1CC(=O)Nc1cc(Cl)ccc1C (stereo unspecified) -22.8%
COC(=O)c1ccc(C(=O)OC)c(NC(=O)c2cnn3c(C(F)F)cc(-c4ccc(C)cc4)nc23)c1 -9.56%
COc1ccc(Cl)cc1C(=O)NCCc1ccc(S(=O)(=O)NC(=O)NC2CCCCC2)cc1 -10.4%
COC(=O)c1scc(-c2ccc(C)cc2)c1S(=O)(=O)N1CCN(c2ccccc2F)CC1 -6.74%
Cc1cccc(N2CCN(c3ncnc4c3cnn4-c3ccc(Cl)cc3)CC2C)c1 (stereo unspecified) -22.3%
O=C(Cn1c(-c2cccs2)cc2cc(F)ccc21)N1CCCCC1 -5.52%
COc1cccc(C(=O)Nc2c3c(nn2-c2ccc(C)cc2C)CS(=O)(=O)C3)c1OC -18.5%
COc1ccc(N(C)S(=O)(=O)c2ccc3c(c2)n(C)c(=O)c(=O)n3C)cc1 -2.48%
CC(C)CN(CC(C)C)S(=O)(=O)c1ccc(C(=O)Nc2sc3c(c2C(N)=O)CCN(C(C)C)C3)cc1 -25.6%
CCOCCc1nn2c(=O)cc(COC(=O)c3ccccc3NC(=O)CC(C)C)nc2s1 -6.81%
CCOc1ccc(-c2noc(CSc3nnc(Cc4ccccc4)n3-c3ccc(F)cc3)n2)cc1 -16.4%
CC(=O)N1CCC(N(Cc2ccco2)C(=O)Nc2ccc(Br)cc2F)CC1 -9%
O=C(CC1N=C2c3ccccc3N=C(SCc3ccccc3Cl)N2C1=O)NCc1cccs1 (stereo unspecified) -20.1%
COc1ccc(NC(=O)C(=O)NCC(c2cccnc2)N2CCc3ccccc3C2)cc1 (stereo unspecified) -14.8%
